Assay results as given in the RNAGym collection of RNA variant scans (doi:10.7554/elife.90254).
Read counts are not given, so values of variants with three or more changes are uncertain.

B1: LINE1-mini (parent)
chain: GGCAGAGCUCAACACAGCGUGGCAAAGUGGCUGUGGCUAGACUGCC

Variants of: B1
Test: self-cleavage, relative activity (ratio to wild type); higher = more cleavage; in vitro, sequencing; the parent is a self-cleaving ribozyme

Row | Variant | self-cleavage
1 | GACAGAGAUCAACACAGCGUGGCAAAGUGACUGUGGCUAAACUGCC [G2A C8A G30A G40A] | 0.37
2 | GACAGAGAUCAACACAGCGUGGCAAAGUGGCCGUGGCUAGACUGCC [G2A C8A U32C] | 0.68
3 | GACAGAGGUCAACCCAGCGUGGCAAAGUGGCUGUGGAUAGACUGCC [G2A C8G A14C C37A] | 0.01
4 | GACAGAGGUAAACACAGCGUGGCAAAGUGGAUGUCGCUAGACUGCC [G2A C8G C10A C31A G35C] | 0.02
5 | GACAGAGGUCAACACAGCGUGGUAAAGUGGCAGUGGCUAGACUGCC [G2A C8G C23U U32A] | 0.02
6 | GACAGAGUUCAAAACAGCGUGGCAAAGUGGCUGUGGCUAGACUGCC [G2A C8U C13A] | 0.6
7 | GACAGAGCUAACCACAGCGUGGCAAACUGGCUUUUGCUAGACUGCC [G2A C10A A12C G27C G33U G35U] | 0.02
8 | GACAGAGCUAAACACCGCGUGACAAAGUGGCUGUGGCUAGACUGCC [G2A C10A A16C G22A] | 0.01
9 | GACAGAGCUAAACACAGCGUGGCAAAGUGGCUGUGGCUAGCCUGCC [G2A C10A A41C] | 0.02
10 | GACAGAGCUAAACACAGCGUGGCAAAGUGGCUGUGGCUAGCCAGCC [G2A C10A A41C U43A] | 0.03
11 | GACAGAGCUAAACACAGGGUGGCAAAGUGGCUGUGGCUAGUCUUCC [G2A C10A C18G A41U G44U] | 0.02
12 | GACAGAGCUAAACACAGCGUGGAAAAGUGGCUGUGUCUAGACUGCC [G2A C10A C23A G36U] | 0.02
13 | GACAGAGCUAAACACAGCGUGGCAAAGUGGCUGUGGCUAGAAUGCC [G2A C10A C42A] | 0.04
14 | GACAGAGCUAAACACAGCGUGGCAAAGUAGCUUUGGUUAGACUACC [G2A C10A G29A G33U C37U G44A] | 0.01
15 | GACAGAGCUAAACACAGCGUGGCAAAGGGGCUGUGGCUAGACUGCC [G2A C10A U28G] | 0.07
16 | GACAGAGCUAAACACAGCGUGGCAAAGUGGCUGUGGCAAGACUACC [G2A C10A U38A G44A] | 0.14
17 | GACAGAGCUAAACACAGCGUGGCAAAGUGGCUGUGGCUAGACGGCC [G2A C10A U43G] | 0.16
18 | GACAGAGCUGAACUCAGCGUGGCAAAUUCGCUCUGGCUAGACUGCC [G2A C10G A14U G27U G29C G33C] | 0.03
19 | GACAGAGCUGAACACAGUGUGGCAAAGUGGCUGUGGCUAGACUGCC [G2A C10G C18U] | 0.02

Row | Variant | self-cleavage
20 | GACAGAGCUGAACACAGCGUGGGAAGGUGGCUGUGGCUAGAUUGCC [G2A C10G C23G A26G C42U] | 0.02
21 | GACAGAGCUGAACACAGCAUGGCAAAUUGGCUGUGGCUAGACUGCC [G2A C10G G19A G27U] | 0.04
22 | GACAGAGCUGAACACAGCGUGGCAAAGUGGCUGUGUCUAGACUGCC [G2A C10G G36U] | 0.02
23 | GACAGAGCUUAACACACCGUGGCAAAGUGGCUGUGGCUAGACUGGC [G2A C10U G17C C45G] | 0.94
24 | GACAGAGCUUAACACAUCGUAGCAAAGUGGCUGUGGCUCGACUGCC [G2A C10U G17U G21A A39C] | 0.04
25 | GACAGAGCUUAACACAGCGUGGCAAAGUAGCUGUGGCUAGACUGCC [G2A C10U G29A] | 0.34
26 | GACAGAGCUCAAAACCGCGUGGCAAAGUGGCUGUGGCUAGACUGCC [G2A C13A A16C] | 0.24
27 | GACAGAGCUCAAAACAGCGUGGGAAAGUGGCUGUGGCUAGACUGCC [G2A C13A C23G] | 0.13
28 | GACAGAGCUCAAAACAGCAUCGCAAAGUGGCUGUGGCUAGACCGCC [G2A C13A G19A G21C U43C] | 0.07
29 | GACAGAGCUCAAAACAGCGUGGCAAAUUAGCUGUGGCUAGAAUGCC [G2A C13A G27U G29A C42A] | 0.68
30 | GACAGAGCUCAAAACAGCGUGGCAAAGUGAGCGUGGCUAGACUGCC [G2A C13A G30A C31G U32C] | 0.07
31 | GACAGAGCUCAAGACUGCGUGGCAAAGUGGCUGUUGCCAGAGUGCC [G2A C13G A16U G35U U38C C42G] | 0.16
32 | GACAGAGCUCAAUACAGAGUGGCAAAGUGGCUGUGGCUACAGUGCC [G2A C13U C18A G40C C42G] | 0.04
33 | GACAGAGCUCAAUACAGAGAGGCAAAGUGGCUGUGGUUAGACUGCC [G2A C13U C18A U20A C37U] | 0.05
34 | GACAGAGCUCAAUACAGGGUGGCAAAGUGGCUGUGACUAGACUGCC [G2A C13U C18G G36A] | 0.1
35 | GACAGAGCUCAAUACAGCGUGGCAAAGUGGCUGUGGCUAGAGUGCC [G2A C13U C42G] | 0.08
36 | GACAGAGCUCAAUACAGCAUGGCAAAGUGGCUGUGGCUAGACUGCU [G2A C13U G19A C46U] | 0.78
37 | GACAGAGCUCAAUACAGCGUGGCAAAGUGGCGGAGGCUAGACUGCC [G2A C13U U32G U34A] | 0.06
38 | GACAGAGCUCAACAAAGCGUUGCAAAGUGGCAUUGGAUAGACUGGC [G2A C15A G21U U32A G33U C37A C45G] | 0.1

Row | Variant | self-cleavage
39 | GACAGAGCUCAACAAAGCGUGCCAAAGUGGCUGUGGCUAGACUGCG [G2A C15A G22C C46G] | 0.15
40 | GACAGAGCUCAACAAAGCGUGCCAAAGUGGCUGUCGCUAGACUGCC [G2A C15A G22C G35C] | 0.03
41 | GACAGAGCUCAACAGAUCGUGGCAAAGUGGCUGUGGCAAGACUGCC [G2A C15G G17U U38A] | 0.01
42 | GACAGAGCUCAACAGAGCGUGGCAAAAUCGCUGUGGCUAGUCUGCC [G2A C15G G27A G29C A41U] | 0.04
43 | GACAGAGCUCAACAGAGCGUGGCAAAGUGGCUGUCGCUAGGCUGCC [G2A C15G G35C A41G] | 0.02
44 | GACAGAGCUCAACAGAGCGUGGCAAAGUGGCUGUGUCUAGACUGCC [G2A C15G G36U] | 0.02
45 | GACAGAGCUCAACAUAGCGUGGCAAAGUGGCUGUGGCUAGAUUGCC [G2A C15U C42U] | 0.14
46 | GACAGAGCUCAACAUAGCGUGGCAAAAUGGCUGUGGCUAGAAUGCC [G2A C15U G27A C42A] | 0.05
47 | GACAGAGCUCAACAUAGCGUGGCAAAAUGGCUGUGGCUAAACUGCC [G2A C15U G27A G40A] | 0.33
48 | GACAGAGCUCAACAUAGCGUGGCAAAGUGACUGGGGCUAGACUGCC [G2A C15U G30A U34G] | 0.48
49 | GACAGAGCUCAACAUAGCGUGGCAAAGUGGCGGUGGCUAGAUUGCC [G2A C15U U32G C42U] | 0.19
50 | GACAGAGCUCAACAUAGCGUGGCAAAGUGGCUGUGGCAAGACUGCC [G2A C15U U38A] | 0.28
51 | GACAGAGCUCAACACAGGGUGGCAAAGUGGCUGUGGCUCGACUCCC [G2A C18G A39C G44C] | 0.02
52 | GACAGAGCUCAACACAGUGUGGUAUAGUGGCUGUGGCUAGACUGCC [G2A C18U C23U A25U] | 0.1
53 | GACAGAGCUCAACACAGUCUGGCAAAGUGGCUGUGGCUAGACUGGC [G2A C18U G19C C45G] | 0.03
54 | GACAGAGCUCAACACAGUGUGGCAAAGAGGCUGUGGCUAGACUGCC [G2A C18U U28A] | 0.25
55 | GACAGAGCUCAACACAGCGUGGAAAAGUGGCUGUGGCUCGACUGCC [G2A C23A A39C] | 0.2
56 | GACAGAGCUCAACACAGCGUGGAAAAGUGGCUGUGGCUAAACUGCC [G2A C23A G40A] | 0.32
